{"source": "patent US20200181261A1", "about": "(Bayer, published 2020)", "binders": {"B1": {"name": "Human CEACAM6-Xa-Fc-His (Fc fusion)", "chain": "KLTIESTPFNVAEGKEVLLLAHNLPQNRIGYSWYKGERVDGNSLIVGYVIGTQQATPGPAYSGRETIYPNASLLIQNVTQNDTGFYTLQVIKSDLVNEEATGQFHVYPELPKPSISSNNSNPVEDKDAVAFTCEPEVQNTTYLWWVNGQSLPVSPRLQLSNGNMTLTLLSVKRNDAGSYECEIQNPASANRSDPVTLNVLYGPDGPTISPSKANYRPGENLNLSCHAASNPPAQYSWFINGTFQQSTQELFIPNITVNNSGSYMCQAHNSATGLNRTTVTMITVSGIEGRDMDT[human IgG1 Fc and a few adjoining residues left out]", "notes": "extracellular (mature form) fused to Xa-Fc-His; the entry is the whole fusion; also called hWT"}}, "target": "T1, human CEACAM1, extracellular (mature form), R&D Systems 2244-CM (human, UniProt P13688 35-428)", "T1 construct": "used biotinylated in some assays; also called TPP-1437; hC1", "T1 sequence": "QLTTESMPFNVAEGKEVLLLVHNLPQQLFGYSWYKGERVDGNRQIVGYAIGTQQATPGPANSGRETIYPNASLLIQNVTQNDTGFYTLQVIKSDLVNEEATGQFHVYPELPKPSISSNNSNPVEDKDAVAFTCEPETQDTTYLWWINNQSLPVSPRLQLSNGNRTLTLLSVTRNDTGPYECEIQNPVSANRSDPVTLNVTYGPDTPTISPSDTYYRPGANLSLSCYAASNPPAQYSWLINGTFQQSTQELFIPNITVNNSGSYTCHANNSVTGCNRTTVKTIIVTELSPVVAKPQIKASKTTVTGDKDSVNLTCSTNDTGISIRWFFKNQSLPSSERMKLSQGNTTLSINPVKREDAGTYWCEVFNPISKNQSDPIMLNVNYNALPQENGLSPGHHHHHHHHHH", "assay": "binding ELISA with recombinant proteins, CEACAM1 coated", "experimental": "Therefore, a direct CEACAM6-CEACAM1 interaction was tested using recombinant proteins in a binding ELISA. After establishing in preliminary experiments that a moderate but specific interaction between CEACAM1 and CEACAM6 could be detected, the following protocol was used: Black 384-well Maxisorb plates (Nunc) were coated with 1 μg/ml CEACAM1 (R&D Systems, TPP-1437) in Coating Buffer (Candor) for 1 h at 37° C. or were left uncoated as a control. After one wash with PBS/0.05% Tween-20 the wells were blocked with 100% Smart Block (Candor) for 1 h at 37° C. […] The blocked plates were washed three times and the preformed antibody-CEACAM6-complexes were added. The plates were incubated for 1 h at RT. After three washes an anti-human IgG HRP (Sigma A1070) was added at 1:10.000 and the plates were incubated for 1 h at RT. After three washes the plates were developed with Amplex Red (Life Technologies) and fluorescence was read at an emission wavelength of 590 nm."}
{"binder": "B1", "values": [{"measurement": "binding result", "result": "binds"}]}
